# Source: article PMC4336329 (PLoS ONE, 2015)
# Hit rate of the full screen: of about 310,000 compounds, about 14,000 (4.5%) showed an effect of 50% or more. Effects have a minus sign here. This is one part of the list.
# Molecular target: human ether-à-go-go-related gene (hERG) potassium channel (human, UniProt Q12809)
# Experiment: primary screen, population patch clamp on CHO cells stably expressing hERG
# 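Further: peak tail current of the secondary pulse compared with the same well before compound.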
# human ether-à-go-go-related gene (hERG) potassium channel, sequence (Q12809 whole entry, looked up): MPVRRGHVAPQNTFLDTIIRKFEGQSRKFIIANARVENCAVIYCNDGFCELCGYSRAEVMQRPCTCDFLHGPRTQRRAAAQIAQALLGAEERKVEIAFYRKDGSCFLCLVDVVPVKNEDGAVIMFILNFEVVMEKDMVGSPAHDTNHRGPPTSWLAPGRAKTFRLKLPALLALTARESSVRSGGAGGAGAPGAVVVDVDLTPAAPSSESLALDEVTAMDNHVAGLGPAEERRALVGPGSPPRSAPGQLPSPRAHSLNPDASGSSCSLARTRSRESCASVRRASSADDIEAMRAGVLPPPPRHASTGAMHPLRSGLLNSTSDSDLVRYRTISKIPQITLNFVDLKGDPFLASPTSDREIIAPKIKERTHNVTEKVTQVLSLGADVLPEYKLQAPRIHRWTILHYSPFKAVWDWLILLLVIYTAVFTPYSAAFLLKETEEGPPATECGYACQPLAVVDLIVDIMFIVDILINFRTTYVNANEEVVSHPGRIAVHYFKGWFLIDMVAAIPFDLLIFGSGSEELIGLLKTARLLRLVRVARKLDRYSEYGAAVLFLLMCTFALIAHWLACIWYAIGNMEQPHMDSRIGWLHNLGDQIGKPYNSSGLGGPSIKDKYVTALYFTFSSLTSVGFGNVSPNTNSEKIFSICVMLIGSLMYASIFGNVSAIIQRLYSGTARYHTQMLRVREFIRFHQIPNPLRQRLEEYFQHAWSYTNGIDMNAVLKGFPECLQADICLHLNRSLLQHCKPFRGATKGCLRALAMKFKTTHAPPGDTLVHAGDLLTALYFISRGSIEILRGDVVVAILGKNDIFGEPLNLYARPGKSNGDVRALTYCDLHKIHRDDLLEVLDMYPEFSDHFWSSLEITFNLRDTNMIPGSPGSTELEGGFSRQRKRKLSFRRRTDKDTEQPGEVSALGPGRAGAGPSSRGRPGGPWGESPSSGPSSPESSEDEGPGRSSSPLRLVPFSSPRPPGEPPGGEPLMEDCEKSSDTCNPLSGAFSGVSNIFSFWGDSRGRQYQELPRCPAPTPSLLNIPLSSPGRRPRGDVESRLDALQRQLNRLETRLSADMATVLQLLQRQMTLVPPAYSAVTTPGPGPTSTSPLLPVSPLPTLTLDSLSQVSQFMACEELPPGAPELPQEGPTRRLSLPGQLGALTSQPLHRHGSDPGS
row,SMILES,"hERG current change (%, negative = inhibition) at 10uM"
1,CCN(CC(=O)Nc1ccc2c(c1)OCCO2)Cc1nc2cc(Cl)ccc2c(=O)[nH]1,-29%
2,Cc1ccc(CC(=O)NC2CCCc3ccccc32)cc1C (stereo not shown),5.63%
3,Cc1cc(C(=O)N2CCN(Cc3ccc4c(c3)OCO4)CC2)on1,-4.02%
4,O=C(NCc1ccco1)/C(=C/c1ccccc1)NC(=O)c1ccco1,4.72%
5,COc1ccc(C(CC(=O)O)NC(=O)COc2cc(C)ccc2C)cc1OC (stereo not shown),21.2%
6,CN(C(=O)C1CCC(CNS(=O)(=O)c2cccc3cccnc23)CC1)C1CCCCC1 (stereo not shown),-29.4%
7,CCn1c(=O)n(CCOC)c(=O)c2c3c(sc21)CCCC3,-10.1%
8,Cc1sc2ncnc(N3CCC(C)CC3)c2c1C,-11.3%
9,Cc1ccc(SC(C)C(=O)NCc2ccncc2)cc1 (stereo not shown),12.1%
10,CCCCC1CC(CSc2ncn[nH]2)OC1=O (stereo not shown),8.14%
11,Cc1ccccc1CNC(=O)c1ccc(CSCc2ccccc2)cc1,-2.56%
12,Cc1c(CC(=O)N[C@@H](C)C(=O)O)c(=O)oc2cc3c(cc12)CCC(C)(C)O3,19.7%
13,CN(Cc1ccc2nonc2c1)Cc1nc(Cc2cccc(F)c2)no1,-35.4%
14,Cc1ccc2c(c1)N(S(=O)(=O)c1ccc(CN3C(=O)c4cccnc4C3=O)cc1)CCO2,18%
15,COc1cccc(OCC(O)CN2CCN(C)CC2)c1.O=C(O)C(=O)O (stereo not shown),16.2%
16,Cc1ccccc1NS(=O)(=O)c1nnc(NC(=O)c2ccccc2C)s1,-24.1%
17,COc1ccc2oc(C(=O)c3ccccc3)c(N)c2c1,4.76%
18,Cc1cnc(C(=O)Nc2ccc(C(C)C)cc2)cn1,-14%
19,CC1(C)Cc2c(c(-c3ccco3)nc3sc4c(NCC5CCCO5)ncnc4c23)CO1 (stereo not shown),0.368%
20,COc1ccccc1N(Cc1cc2cccc(C)c2[nH]c1=O)C(=O)C(C)C,-2.2%
21,COc1ccc(CN(C)c2ncnc(N)n2)cc1,11.5%
22,O=C(CCCc1nc(-c2ccccc2)no1)NC1CCCC1,-12.2%

row,SMILES,"hERG current change (%, negative = inhibition) at 10uM"
1,Cc1n(C)c2cc(Cl)ccc2[n+]1Cc1ccccc1.[I-],-3.49%
2,COC(=O)[C@H](CC(C)C)NC(=O)Nc1ccc(F)cc1,5.58%
3,COc1ccc(C2CC(c3ccc4ccccc4c3)=NN2C(=O)CNC2CCCCC2)cc1 (stereo not shown),-21.2%
4,COc1ccc(NC(=O)n2ncc3c(C)cccc32)cc1,20.5%
5,COc1cc(NC(=S)N2CCN(C(=O)c3ccco3)CC2)c(OC)cc1Cl,-25.8%
6,O=C(COc1ccccc1Cl)Nc1cccc(S(=O)(=O)NC2=NCCCCC2)c1,-5.14%
7,CC(NC(=O)C1CCC1)c1ccc(Br)cc1 (stereo not shown),-17.5%
8,O=C(Nc1nc2ccccc2[nH]1)c1ccc(Cl)cc1,20.8%
9,O=C(COC(=O)/C=C/c1ccc(S(=O)(=O)N2CCOCC2)cc1)NCc1ccc(Cl)cc1,1.35%
10,O=C(NCc1ccncc1)C(=O)NC1CC1,18.9%
11,Cc1cc(Br)ccc1NC(=O)CNC(=O)COc1ccccc1C,7.86%
12,Cc1ccc(C)c(NS(=O)(=O)c2ccc3c(c2)NC(=O)CO3)c1,-5.83%
13,Cc1ccc(C2C(C#N)=C(N)Oc3n[nH]c(-c4ccccc4)c32)o1 (stereo not shown),5.94%
14,Cc1noc(C)c1C(=O)OCC(=O)C12CC3CC(CC(C3)C1)C2,1.18%
15,CCOC(=O)c1cncn1[C@H](C)c1ccccc1,6.17%
16,O=C(Nc1ccccc1)c1cccc(S(=O)(=O)Oc2ccc([N+](=O)[O-])cc2)c1,-56.4%
17,CCOC(=O)[C@H]1[C@H]2COc3ccc(C)cc3[C@@H]2N2C(=O)CN(Cc3ccco3)C(=O)[C@@]12C,-0.0676%
18,COC(=O)C1=C(C)N(c2ccc(C)cc2)/C(=C/c2ccc(O)cc2)C1=O,32.2%
19,Cc1ccc(C)c(S(=O)(=O)Nc2ccc(O)c3ccccc23)c1,-18.1%
20,CN(C)c1ccc(NC(=S)NCC2CCCO2)cc1 (stereo not shown),3.56%
21,O=C(O)C(=O)O.O=C(c1ccccc1)c1ccc(OCCCN2CCCC2)cc1,-70.6%
22,C[C@@H]1C[C@@H]2OC(=O)[C@]3(C)[C@H]2[C@@H](OC3(C)O)[C@]2(C)C(=O)CC[C@H]12 (stereo partly shown),4.01%

row,SMILES,"hERG current change (%, negative = inhibition) at 10uM"
1,Cc1c(Cl)cccc1NS(=O)(=O)c1ccc(-c2ccc(=O)[nH]n2)o1,12.7%
2,CCOC(=O)Nc1ccc(S(=O)(=O)Nc2nc(C)cc(C)n2)cc1,-17.7%
3,S=c1[nH]nc(-c2ccccc2)o1,15.1%
4,CC(Sc1nc(NCc2ccccc2)nc(N2CCOCC2)n1)C(=O)Nc1ccccc1 (stereo not shown),8.24%
5,N#C/C(=C/c1ccc(OCc2ccccc2)cc1)C(=O)NC1CCCCC1,7.76%
6,Cc1cnc(C(=O)OCC(=O)c2ccc(F)c(F)c2)cn1,0.157%
7,CC(=O)Nc1ccc(S(=O)(=O)N2CCCC(C(=O)O)C2)cc1 (stereo not shown),-3.16%
8,COc1cc(/C=N/NC(=O)CCC(=O)NCc2ccccc2)cc(OC)c1OC,8.99%
9,O=C1CC2(CC(c3ccc(Cl)cc3)=NO2)C(=O)N1c1ccccc1 (stereo not shown),-2.86%
10,CC(=O)c1cc2c(cc1N/C(=N/S(=O)(=O)c1ccc(C)cc1)c1ccc(Cl)cc1)OCO2,7.23%
11,O=C(COC(=O)Cc1ccc(Cl)c(Cl)c1)Nc1ccc2[nH]c(=O)[nH]c2c1,16.5%
12,CCOc1cc(CNCCCN2CCOCC2)ccc1OCC(=O)NC(C)(C)C.Cl,-2.55%
13,Cc1ccc(CNC(=O)c2nnn(-c3cccc(C)c3)c2N)cc1,-22.6%
14,CCOc1ccc(N(CC(=O)O)S(=O)(=O)c2ccc(OC)c(OC)c2)cc1,13.7%
15,COc1ccccc1N1CCN(CC(O)COc2ccc(S(=O)(=O)N3CCOCC3)cc2)CC1.Cl (stereo not shown),-4.3%
16,CCOC(=O)c1cc(S(=O)(=O)N2CCN(C(=O)OCC)CC2)cn1C,-3.2%
17,COC(=O)CCCCCNc1ccc(C(=O)OC)cc1N,11%
18,Cc1ccc(S(=O)(=O)N2CCN(C(=O)C(C)Cn3cncn3)CC2)cc1C (stereo not shown),8.65%
19,CCC(C)(C(=O)NC1CCCC1)N(C(=O)CNC(C)=O)c1ccccc1 (stereo not shown),0.426%
20,CCc1cccc2c3c([nH]c12)C(CC)(CC(=O)O)OCC3 (stereo not shown),16.1%
21,O=C(Nc1ccc(S(=O)(=O)Nc2ccccc2)cc1)C1CC1,-3.52%
22,CCCNC(=O)c1ccc(N2CC3CC(C2)c2cccc(=O)n2C3)c(NC(=O)Nc2ccc(CC)cc2)c1 (stereo not shown),-78.7%

row,SMILES,"hERG current change (%, negative = inhibition) at 10uM"
1,COc1cc(OC)cc(C(=O)NN2CCCCC2)c1,-4.37%
2,O=S(=O)(Nc1ccc2c(c1)OCCO2)c1ccc(F)cc1,-3.41%
3,Cc1oc(/C=N/NS(=O)(=O)c2ccccc2)cc1Br,-7.5%
4,O=C(c1ccccc1)N1CCN(C(=O)c2ccc(OC(F)(F)F)cc2)CC1,-62.8%
5,O=C(CNS(=O)(=O)c1ccc2ccccc2c1)OCC(=O)c1ccc(Br)s1,17.2%
6,Oc1ccc(Cl)cc1/C=N/c1nccs1,7.9%
7,COc1ccc(C(=O)Nc2ccccc2C(=O)N/N=C/c2ccncc2)cc1OC,0.749%
8,CCOC(=O)c1oc2cc(O)c(CC)cc2c(=O)c1-c1cscn1,2.56%
9,Cc1ccc(C(=O)N/N=C\c2ccc(-c3ccc(Cl)cc3)o2)cn1,-47.6%
10,COc1ccccc1CC(=O)Nc1ccc(S(=O)(=O)N2CCOCC2)cc1,7.44%
11,Cc1c(OCc2ccccc2)c(=O)ccn1Cc1ccc(F)cc1,4.21%
12,CCOc1ccccc1NC(=O)C1CCCN(S(=O)(=O)c2ccc3c(c2)C(C)(C)C(=O)N3C)C1 (stereo not shown),-11.9%
13,COc1ccc(CNC(=O)[C@@H](NC(=O)C2CCN(C(=O)[C@@H](N)CCSC)CC2)C(C)C)cc1,14.7%
14,C=CCOC(=O)C1=C[C@H](c2ccc3c(c2)OCO3)C[C@H](OCCCCO)O1,-30.2%
15,Cc1cccc(NC(=O)c2sc3nc4c(c(-c5cccs5)c3c2N)CN(C)CC4)c1,-51.6%
16,COC(=O)c1c(NC(=O)c2cccs2)sc2c1CCCC2,11.8%
17,Cc1ccc(CN2CCN(Cc3cnc(C)s3)CC2CCO)cc1 (stereo not shown),-19.4%
18,Nc1nc(SCC(=O)NCC2CCCO2)[nH]c(=O)c1NC(=O)c1ccco1 (stereo not shown),15.2%
19,CC(=O)c1c(C(C)=O)c(C)n(-c2ccc(C)c(NC(=O)c3ccccc3Cl)c2)c1C,-26.2%
20,Cc1nn(-c2ccccc2)c2c1C1(C(=O)N3c4c(cccc41)C(C)CC3(C)C)C(C#N)=C(N)O2 (stereo not shown),-6.75%
21,O=[N+]([O-])c1ccccc1CNCCO,11.2%
22,O=C(O)C1CC=CCC1C(=O)Nc1cccc(Cl)c1 (stereo not shown),9.77%
